Out of some 310,000 compounds screened, about 14,000 (4.5%) showed an effect of 50% or more. Effects have a minus sign here. This is one part of the list.
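Also: peak tail current of the secondary pulse compared with the same well before compound.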

In this experiment the target is human ether-à-go-go-related gene (hERG) potassium channel (human, UniProt Q12809). Description: primary screen, population patch clamp on CHO cells stably expressing hERG.
Chain of human ether-à-go-go-related gene (hERG) potassium channel (Q12809 whole entry, looked up): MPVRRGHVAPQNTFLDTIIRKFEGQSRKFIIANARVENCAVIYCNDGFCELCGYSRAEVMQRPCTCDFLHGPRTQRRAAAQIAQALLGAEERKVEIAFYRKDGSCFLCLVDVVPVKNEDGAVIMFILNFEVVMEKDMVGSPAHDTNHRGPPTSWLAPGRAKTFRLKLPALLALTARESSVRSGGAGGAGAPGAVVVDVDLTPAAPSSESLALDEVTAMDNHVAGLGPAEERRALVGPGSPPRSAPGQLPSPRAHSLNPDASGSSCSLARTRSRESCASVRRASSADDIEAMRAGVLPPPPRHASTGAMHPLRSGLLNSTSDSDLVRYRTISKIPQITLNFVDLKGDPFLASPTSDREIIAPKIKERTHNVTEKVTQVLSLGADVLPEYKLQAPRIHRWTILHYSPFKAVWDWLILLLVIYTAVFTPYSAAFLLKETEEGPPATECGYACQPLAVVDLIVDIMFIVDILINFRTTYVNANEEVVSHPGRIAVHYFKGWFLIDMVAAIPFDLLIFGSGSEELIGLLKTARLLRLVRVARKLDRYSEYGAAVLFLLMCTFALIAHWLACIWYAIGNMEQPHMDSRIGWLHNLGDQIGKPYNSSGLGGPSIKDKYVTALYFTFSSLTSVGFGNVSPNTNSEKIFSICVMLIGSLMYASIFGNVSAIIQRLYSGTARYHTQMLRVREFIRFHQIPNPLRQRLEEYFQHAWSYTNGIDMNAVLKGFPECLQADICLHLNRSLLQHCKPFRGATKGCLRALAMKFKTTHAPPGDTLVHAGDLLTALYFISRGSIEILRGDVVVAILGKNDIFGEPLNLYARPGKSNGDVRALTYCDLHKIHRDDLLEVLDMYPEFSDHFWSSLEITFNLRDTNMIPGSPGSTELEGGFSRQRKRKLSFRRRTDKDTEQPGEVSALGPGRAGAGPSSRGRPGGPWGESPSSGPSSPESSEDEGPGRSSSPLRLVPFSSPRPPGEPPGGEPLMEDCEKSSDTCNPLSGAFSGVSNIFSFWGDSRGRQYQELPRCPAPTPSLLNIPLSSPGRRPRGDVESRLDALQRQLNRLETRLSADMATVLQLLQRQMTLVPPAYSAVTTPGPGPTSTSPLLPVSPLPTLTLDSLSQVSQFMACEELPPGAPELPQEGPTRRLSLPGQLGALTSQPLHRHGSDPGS
In the case of `O.OC[C@@H](O)[C@@H](O[C@@H]1O[C@H](CO)[C@H](O)[C@H](O)[C@H]1O)[C@H](O)[C@@H](O)CO`, the “hERG current change (%, negative = inhibition) at 10uM” value is on record as 18%.

Regarding `CCOC(=O)C1CCN(S(=O)(=O)c2ccc3c(c2)CCCN3C(C)=O)CC1`, the “hERG current change (%, negative = inhibition) at 10uM” value is listed as -29.8%. The figure for `Cc1ccc(S(=O)(=O)NC(CC(C)C)C(=O)Nc2ccncc2)cc1` (centres unmarked) is 8.27%; for `O=C(NC1CCN(Cc2ccc(F)cc2)CC1)c1ccccc1` it is -50.2%.

For the compound `Nc1nc(SCC(=O)NC2CCCCCC2)[nH]c(=O)c1-c1ccccc1`, the “hERG current change (%, negative = inhibition) at 10uM” value amounted to 1.87%.

As to `Cc1ccc(S(=O)(=O)N(C)CC(=O)Nc2cccnc2)cc1`, the “hERG current change (%, negative = inhibition) at 10uM” value is on record as 15.4%.

Consider `COc1cccc(NC(=O)CSc2nccn2-c2cccc(OC)c2)c1`, for which the “hERG current change (%, negative = inhibition) at 10uM” value worked out at 2.22%. Take `N#Cc1c(N)n[nH]c1Cc1cccc2ccccc12`: the “hERG current change (%, negative = inhibition) at 10uM” value worked out at 12.3%. In the case of `O=C1OC2(CCCC2)OC(=O)C1=Cc1c[nH]c2ccccc12` it was 2.88%. The figure for `O=C1c2ccccc2N(Cc2ccc(Cl)cc2)C2=NCCN12` is -13.5%; for `OCC1(Cc2ccccc2)CCCN(Cc2ccc3c(c2)OCCO3)C1` (centres unmarked) it is -24.6%; for `CN(C)CCCN1C(=O)c2oc3ccc(Cl)cc3c(=O)c2C1c1cccnc1` (centres unmarked) it is -13.4%. For `CCOc1ccc(NC(=O)Cc2c(O)c3ccccc3[nH]c2=O)cc1`, the “hERG current change (%, negative = inhibition) at 10uM” value is reported as 11.2%. The figure for `CC(C)(C)NC(=S)NCC1CC1` is 5.86%; for `O=S1(=O)CCC(NS(=O)(=O)c2cccc3cccnc23)C1` (centres unmarked) it is 8.74%. Regarding `O=C(c1ccco1)N(Cc1ccc2c(c1)OCO2)Cc1cc2cc3c(cc2[nH]c1=O)OCO3`, the “hERG current change (%, negative = inhibition) at 10uM” value was -5.94%. The figure for `CCOC(=O)c1cnc2c(N=Nc3ccccc3)c(N)nn2c1N` is 22.7%; for `CC1CCC(NC(=O)c2ccc3snnc3c2)CC1` (centres unmarked) it is 21.3%. In the case of `CCCOc1ccc(NC(=O)C2CC(=O)N/C(=N/N=C(C)/C=C/c3ccc(N(C)C)cc3)S2)cc1` (centres unmarked) it was 24.4%; in that of `CCC1(c2ccc(F)cc2)NC(=O)N(CC(=O)N2c3ccccc3CC2C)C1=O` (centres unmarked), -12.9%; in that of `COc1ccc(S(=O)(=O)N2CCCC2C(=O)NCc2cccs2)cc1` (centres unmarked), -2.41%.

Take `COC(=O)Cc1csc(NCc2ccccc2)n1`: the “hERG current change (%, negative = inhibition) at 10uM” value is listed as 7.78%. The figure for `Clc1ccc(Nc2nc(NCCN3CCOCC3)nc(N3CCOCC3)n2)cc1` is -56%; for `CCc1ccc(S(=O)(=O)NCc2cccnc2)cc1` it is 17.8%.

Consider `CCN1CCN(C(=O)c2nn(C)c3c2CS(=O)(=O)c2ccccc2-3)CC1`, for which the “hERG current change (%, negative = inhibition) at 10uM” value is reported as 12%. The figure for `CCCOC(=O)CCCCC1SCC(NC(=O)OC)C1NC(=O)OC` (centres unmarked) is -8.07%; for `Nc1nonc1-n1nnc(C(=O)N/N=C/c2ccc(Cl)cc2Cl)c1CN1CCCC1` it is 19.1%; for `COC(=O)C1=C(c2ccc(-c3ccccc3)c(F)c2)C[C@@H]2CC[C@H]1N2C(=O)N1CCc2cc(OC)c(OC)cc2C1` it is 17.9%.

For `COc1ccc(CCn2c(NN=C3CCCCC3)nc3c2c(=O)[nH]c(=O)n3C)cc1`, the “hERG current change (%, negative = inhibition) at 10uM” value is 0.199%.

In the case of `Cc1cccc(NC(=S)NC(=O)CCc2ccccc2)c1C`, the “hERG current change (%, negative = inhibition) at 10uM” value is on record as 8.45%. The figure for `COc1ccc(/C=C2/C(=O)N(CC3CCCO3)C(=S)N2C)c(OC)c1` (centres unmarked) is -16.9%; for `O=C(N/N=C/c1cccnc1)C(O)(c1ccccc1)c1ccccc1` it is -0.565%. The figure for `CSc1cccc(NC(=O)c2cccc3cccnc23)c1` is -1.48%.

As for `O=C1CCN(S(=O)(=O)c2cccs2)c2ccc(C(F)(F)F)cc2N1`, the “hERG current change (%, negative = inhibition) at 10uM” value was found to be 5.03%.

As for `CCOC(=O)CC(/C(C)=N\O)c1ccccc1` (centres unmarked), the “hERG current change (%, negative = inhibition) at 10uM” value stood at 9.47%. In the case of `COc1ccc(CCNC(=O)COc2ccccc2[N+](=O)[O-])cc1OC` it was 11.5%. In the case of `CC(NC(=S)NC1CCC(C(C)(C)C)CC1)c1ccccc1` (centres unmarked) it was 23.4%.

With `CC(C)c1ccc(-c2csc3ncnc(N4CCN(C)CC4)c23)cc1`, the “hERG current change (%, negative = inhibition) at 10uM” value is -21.6%. The figure for `CCN(Cc1ccccc1)C(=O)CSc1nc(C)cc(=O)[nH]1` is 4.05%; for `N#CCc1ccc(Oc2ncccn2)cc1` it is 22%.

As to `COc1cccc2c1OC1(C)CC2NC(=O)N1Cc1ccccc1` (centres unmarked), the “hERG current change (%, negative = inhibition) at 10uM” value worked out at 3.63%.

Turning to `CC1(C)C(c2ccccn2)=[N+]([O-])C(C)(C)N1O`, the “hERG current change (%, negative = inhibition) at 10uM” value came to 7.81%. As for `CCOC(=O)C1CCN(S(=O)(=O)CCNC(=O)c2ccc3c(c2)OCO3)CC1`, the “hERG current change (%, negative = inhibition) at 10uM” value is on record as -3.05%. In the case of `Cc1ccc(-c2csc(-c3ccncc3)n2)cc1` it was 4.73%.

`COc1ccccc1N(CC(=O)NCc1ccc(F)cc1)C(=O)CCC(=O)Nc1nccs1`: the “hERG current change (%, negative = inhibition) at 10uM” value worked out at 5.13%. Consider `CCOC(=O)N1CCN(C(=O)/C=C/c2ccc([N+](=O)[O-])cc2)CC1`, for which the “hERG current change (%, negative = inhibition) at 10uM” value is recorded as -70.6%. For the compound `C=CCn1c(SCc2csc(-c3ccc(C)cc3)n2)nnc1-c1ccccc1OC`, the “hERG current change (%, negative = inhibition) at 10uM” value is recorded as -33%. In the case of `COc1ccc(S(=O)(=O)NCC(=O)Nc2ccc(F)cc2)cc1` it was 0.186%; in that of `COc1cc2[nH]c(=O)n(CCCC(=O)NC3CCCCC3)c(=O)c2cc1OC`, 9.66%.

Consider `Cc1cc(C)nc(-n2nc(C)c3c(C(=O)O)cc(-c4cccc(Br)c4)nc32)n1`, for which the “hERG current change (%, negative = inhibition) at 10uM” value is 3.73%. Turning to `Cc1nn(CC(=O)OCC(=O)NCCc2ccc(S(N)(=O)=O)cc2)c(C)c1[N+](=O)[O-]`, the “hERG current change (%, negative = inhibition) at 10uM” value is on record as 8.19%. For `COC(=O)c1ccc2c(c1)nc(C)n2CCO`, the “hERG current change (%, negative = inhibition) at 10uM” value is given as 8.38%. The figure for `O=[N+]([O-])c1ccc(NCc2ccccc2)nc1` is -20.9%; for `Cc1ccc(C(=O)CC(C(=O)O)n2cccn2)cc1` (centres unmarked) it is 7.78%; for `COc1ccc(-c2nn(-c3ccccc3)cc2/C=C/C(=O)O)cc1[N+](=O)[O-]` it is 9.47%. The figure for `O=C(Nc1ccc(N2CCOCC2)cc1)c1cc(F)c(F)cc1Cl` is -6.76%. In the case of `COc1ccccc1NC(=O)COC(=O)c1c[nH]c(=O)[nH]c1=O` it was 17.4%. Take `CCCCN(CC)CCNC(=O)c1cc2c(=O)n(C)c3ccccc3c2s1`: the “hERG current change (%, negative = inhibition) at 10uM” value is recorded as -0.251%. In the case of `COc1cccc(NC(=O)c2cn(C)c(=O)c3cc(OC)c(OC)cc23)c1` it was 6.54%. The figure for `CC(NC(=O)C1CCCC1)c1ccc(Br)cc1` (centres unmarked) is 6.19%. In the case of `Cc1[nH]c2ccc(C(C)C)cc2c1CC(=O)O` it was 18.7%.

Take `COc1ccc(COCC(O)CN(Cc2ccco2)Cc2ccccc2O)cc1` (centres unmarked): the “hERG current change (%, negative = inhibition) at 10uM” value is -4.98%. For `NNC(=O)c1cc2nc(-c3cccs3)cc(C(F)(F)F)n2n1`, the “hERG current change (%, negative = inhibition) at 10uM” value is listed as -44.1%. The figure for `CSc1ccc(NC(=O)CSc2nc3[nH]c(=O)cc(O)c3s2)cc1` is 11.7%. `CCCN(C(=O)c1ccco1)c1nnc(-c2ccccc2C)s1`: the “hERG current change (%, negative = inhibition) at 10uM” value is -18.7%. The figure for `Cc1cc(Cl)ccc1OCC(=O)Nc1nc(-c2cccnc2)cs1` is 9.71%; for `CCc1nnc(NC(=O)CSc2nnc(Cc3ccccc3)n2Cc2ccccc2)s1` it is 6.21%. Turning to `O=C(CN(Cc1ccccc1)S(=O)(=O)c1ccc(Br)cc1)NCC1CCCO1` (centres unmarked), the “hERG current change (%, negative = inhibition) at 10uM” value is -77.2%. In the case of `CC(=O)c1ccc(NC(=O)c2ccc(-n3cncn3)c([N+](=O)[O-])c2)cc1` it was 7.49%; in that of `N#C/C(=C\c1ccc(-c2ccc(C(=O)O)cc2)o1)C(=O)NCC1CCCO1` (centres unmarked), 0.936%.

`COC(=O)C1=C(N)Oc2cc(C)n(CCc3ccccc3)c(=O)c2C1c1cccnc1` (centres unmarked): the “hERG current change (%, negative = inhibition) at 10uM” value is given as -25.9%.

With `CC1CCN(CCNC(=O)C2CCCN(c3ncnc4c3nc3n4CCCCC3)C2)CC1` (centres unmarked), the “hERG current change (%, negative = inhibition) at 10uM” value was 12.5%.

For the compound `CCOc1ccc(/C=C(\C#N)C(=O)NC2CC2)c(OCC)c1`, the “hERG current change (%, negative = inhibition) at 10uM” value is listed as -9.71%.

As for `COc1ccc(C)cc1S(=O)(=O)Nc1cccc(-c2ccc(N3CCCCCC3)nn2)c1`, the “hERG current change (%, negative = inhibition) at 10uM” value is listed as 15.8%. In the case of `O=C(CCCSc1nnc(-c2cccs2)n1CC1CCCO1)c1ccccc1` (centres unmarked) it was -65.1%; in that of `O=C(NCCN1CCOCC1)C(=O)NCC1OCCN1S(=O)(=O)c1ccc(Br)cc1` (centres unmarked), 3.46%; in that of `CCC(C)Nc1nc2c(c(=O)n(C)c(=O)n2C)n1Cc1ccc(Cl)cc1` (centres unmarked), -7.45%. In the case of `CCCCn1nnc(NC(=O)COc2ccc(Cl)c(C)c2)n1` it was 18.3%. For `COC(=O)c1ccc(Cn2c(C)cc(C)[n+]2C)o1.[I-]`, the “hERG current change (%, negative = inhibition) at 10uM” value is given as 18%. The figure for `CCCc1nnc(SCC(=O)N2CCOCC2)n1C` is 17.4%. For `O=C(OC(C(=O)NCC1CCCO1)c1ccccn1)c1cccs1` (centres unmarked), the “hERG current change (%, negative = inhibition) at 10uM” value was 1.83%. With `CCN(CC)CCCN1C(=O)c2oc3ccccc3c(=O)c2C1c1cccnc1` (centres unmarked), the “hERG current change (%, negative = inhibition) at 10uM” value came out at 11.6%.

For the compound `COc1ccccc1N(CC(O)Cn1ccnc1C)S(=O)(=O)c1ccc(C)cc1.Cl` (centres unmarked), the “hERG current change (%, negative = inhibition) at 10uM” value is -39.3%.

On to `O=C(NC1CCCC1)C(c1ccsc1)N(C(=O)Cc1cccs1)c1ccc(F)cc1` (centres unmarked), for which the “hERG current change (%, negative = inhibition) at 10uM” value came out at 21.2%.

Take `COc1ccccc1N(CC(=O)NC1CCCCC1)C(=O)CCC(=O)Nc1nccs1`: the “hERG current change (%, negative = inhibition) at 10uM” value was -2.17%.

Turning to `O=C(COC(=O)CNC(=O)c1ccc(Cl)cc1Cl)NC1CCCCC1`, the “hERG current change (%, negative = inhibition) at 10uM” value came to 1.89%. In the case of `O=C(c1ccc(F)cc1)N1CCN=C1c1ccccc1` it was 7.57%. As to `CCN(CC(=O)N1CCCCCC1)S(=O)(=O)c1ccc(Cl)cc1`, the “hERG current change (%, negative = inhibition) at 10uM” value is reported as -13.5%. The figure for `COc1cccc(CN2CCNC(=O)C2CC(=O)NCCOc2cccnc2)c1` (centres unmarked) is -8.14%.

The values are drawn from article PMC4336329 (PLoS ONE, 2015).
